From the supplement of paper PMC4604168 (melanoma cell lines)
The list shows a part of the results. Most values come without repeats; read them as rough.

How the values were obtained:
Experiment in all cases: cell count relative to DMSO control; melanoma cells; higher = more viable cells
Details in all cases: library dose: standard library concentration; 72 h
G361 = system: G361
IPC-298 = system: IPC-298
IST-MEL1 = system: IST-MEL1
LB2518-MEL = system: LB2518-MEL
LOXIMVI = system: LOXIMVI
MEL-HO = system: MEL-HO
MZ2-MEL = system: MZ2-MEL
MeWo = system: MeWo
RPMI7951 = system: RPMI7951
RVH-421 = system: RVH-421
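Further: cells treated in 1,536-well plates, then fixed and DAPI-stained, with nuclei counted from automated high-throughput microscope images.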

SMILES	cell count (G361) [%]	cell count (IPC-298) [%]	cell count (IST-MEL1) [%]	cell count (LB2518-MEL) [%]	cell count (LOXIMVI) [%]	cell count (MEL-HO) [%]	cell count (MZ2-MEL) [%]	cell count (MeWo) [%]	cell count (RPMI7951) [%]	cell count (RVH-421) [%]
CN(c1ncccc1CNc1nc(Nc2ccc3c(c2)CC(=O)N3)ncc1C(F)(F)F)S(C)(=O)=O + COc1ccc(COc2ccc(Cc3cnc(N)nc3N)cc2OC)cc1 [GW2580] (first compound 0.4 µM, partner dose 5 µM)	74.5	86.8	101	87.7	191	92.9	68.8	68.7	87.5	110
C=C(c1ccc(C(=O)O)cc1)c1cc2c(cc1C)C(C)(C)CCC2(C)C [Bexarotene] + Oc1nc(-c2ccc(C(F)(F)F)cc2)nc2c1CSCC2 [XAV939] (first compound 10 µM, partner dose 10 µM)	77.8	87.9	95.6	105	121	82.6	80.7	90.2	69.6	72.4
NC1(c2ccc(-c3nc4ccn5c(=O)[nH]nc5c4cc3-c3ccccc3)cc2)CCC1 + c1cc(-c2cnn3cc(-c4ccc(OCCN5CCCCC5)cc4)cnc23)ccn1 [Dorsomorphin] (first compound 2 µM, partner dose 2 µM)	47.3	75.6	87.9	62.2	107	69.9	69.9	62.3	58.1	80.8
NC1(c2ccc(-c3nc4ccn5c(=O)[nH]nc5c4cc3-c3ccccc3)cc2)CCC1 + COCC[n+]1c2c(n(Cc3cnccn3)c1C)C(=O)c1ccccc1C2=O [YM155] (first compound 2 µM, partner dose 0.002 µM)	58.6	31	40	10.8	47.7	68.4	25.9	19.6	64.3	81.2
CN(c1ncccc1CNc1nc(Nc2ccc3c(c2)CC(=O)N3)ncc1C(F)(F)F)S(C)(=O)=O + Oc1nc(-c2ccc(C(F)(F)F)cc2)nc2c1CSCC2 [XAV939] (first compound 0.4 µM, partner dose 10 µM)	77.4	101	103	84.8	88.6	81	98.5	92	64.3	104
C=C(c1ccc(C(=O)O)cc1)c1cc2c(cc1C)C(C)(C)CCC2(C)C [Bexarotene] + O=C(O)c1ccc(-c2c[nH]c3ncc(-c4ccccc4)cc23)cc1C1CCCC1 [GSK650394] (first compound 10 µM, partner dose 0.8 µM)	49.1	101	64.2	84.7	95.3	76.4	91.9	77.4	62.5	81.4
CN(c1ncccc1CNc1nc(Nc2ccc3c(c2)CC(=O)N3)ncc1C(F)(F)F)S(C)(=O)=O + COc1ccc(-c2ccc3c(N4CCOCC4)nc(N4C[C@@H](C)O[C@@H](C)C4)nc3n2)cc1CO [KU0063794] (first compound 0.4 µM, partner dose 0.1 µM)	88.2	90.4	83.2	77	90.4	86	70.5	76.7	55.7	64.5
C=C(c1ccc(C(=O)O)cc1)c1cc2c(cc1C)C(C)(C)CCC2(C)C [Bexarotene] + Clc1ccc(Nc2nnc(Cc3ccncc3)c3ccccc23)cc1 [vatalanib] (first compound 10 µM, partner dose 10 µM)	60.2	53.8	69.8	87.4	78.4	53.4	64.2	66.7	80.4	62.1
C=C(c1ccc(C(=O)O)cc1)c1cc2c(cc1C)C(C)(C)CCC2(C)C [Bexarotene] + Cn1c(Nc2ccc(C(F)(F)F)cc2)nc2cc(Oc3ccnc(-c4ncc(C(F)(F)F)[nH]4)c3)ccc21 [CHIR265] (first compound 10 µM, partner dose 0.4 µM)	40	45.3	73.7	40.6	110	54.5	73	76.2	47.7	293
CN(c1ncccc1CNc1nc(Nc2ccc3c(c2)CC(=O)N3)ncc1C(F)(F)F)S(C)(=O)=O + CC(C)C[C@H](NC(=O)[C@H](Cc1ccccc1)NC(=O)c1cnccn1)B(O)O [Bortezomib] (first compound 0.4 µM, partner dose 0.005 µM)	1.63	5.92	6.84	1.37	13.7	27.5	4.64	13.7	3.87	3.88
CN(c1ncccc1CNc1nc(Nc2ccc3c(c2)CC(=O)N3)ncc1C(F)(F)F)S(C)(=O)=O + Cc1cc(Nc2cc(N3CCN(C)CC3)nc(/C=C/c3ccccc3)n2)n[nH]1 [ENMD2076] (first compound 0.4 µM, partner dose 0.2 µM)	75.2	82.5	93.9	86.3	87.6	105	96.4	92.8	57.3	97.4
C=C(c1ccc(C(=O)O)cc1)c1cc2c(cc1C)C(C)(C)CCC2(C)C [Bexarotene] + CC1(C)NC(=O)N(c2ccc([N+](=O)[O-])c(C(F)(F)F)c2)C1=O [nilutamide] (first compound 10 µM, partner dose 5 µM)	87.6	95.7	78.1	101	147	99.8	108	88.3	106	80.3
C=C(c1ccc(C(=O)O)cc1)c1cc2c(cc1C)C(C)(C)CCC2(C)C [Bexarotene] + Nc1ccn([C@@H]2O[C@H](CO)[C@@H](O)C2(F)F)c(=O)n1 [gemcitabine] (first compound 10 µM, partner dose 0.002 µM)	38.2	42.4	25.4	63.1	79.2	57.6	65.6	36.4	62.1	56.7
NC1(c2ccc(-c3nc4ccn5c(=O)[nH]nc5c4cc3-c3ccccc3)cc2)CCC1 + O=C(O)C(=O)Nc1sc2c(c1C(=O)O)CCNC2 [TCS401] (first compound 2 µM, partner dose 8.33333 µM)	98.6	93.8	95.6	62.5	108	79.5	98.2	95.3	77.1	80.8
CCCS(=O)(=O)Nc1ccc(F)c(C(=O)c2c[nH]c3ncc(Cl)cc23)c1F + O=C(O)C(=O)Nc1sc2c(c1C(=O)O)CCNC2 [TCS401] (first compound 0.4 µM, partner dose 8.33333 µM)	69.6	75.6	84.3	101	84.9	65.6	92.1	89	95.1	90.4
CN(c1ncccc1CNc1nc(Nc2ccc3c(c2)CC(=O)N3)ncc1C(F)(F)F)S(C)(=O)=O + Nc1ccn([C@@H]2O[C@H](CO)[C@@H](O)C2(F)F)c(=O)n1 [gemcitabine] (first compound 0.4 µM, partner dose 0.002 µM)	35.5	46.3	43.7	68.3	85.7	50	67.2	56.5	55.8	53.2
NC1(c2ccc(-c3nc4ccn5c(=O)[nH]nc5c4cc3-c3ccccc3)cc2)CCC1 + Cc1nc(Nc2ncc(C(=O)Nc3c(C)cccc3Cl)s2)cc(N2CCN(CCO)CC2)n1 [dasatanib] (first compound 2 µM, partner dose 0.02 µM)	69.9	73.9	57.7	72	18.7	65.2	48.1	63	44.6	68
CCCS(=O)(=O)Nc1ccc(F)c(C(=O)c2c[nH]c3ncc(Cl)cc23)c1F + Oc1nc(-c2ccc(C(F)(F)F)cc2)nc2c1CSCC2 [XAV939] (first compound 0.4 µM, partner dose 10 µM)	71.7	88.3	94	93.2	85.7	73.3	84.3	87.3	76.3	84.9
NC1(c2ccc(-c3nc4ccn5c(=O)[nH]nc5c4cc3-c3ccccc3)cc2)CCC1 + CC(C)C[C@H](NC(=O)[C@H](Cc1ccccc1)NC(=O)c1cnccn1)B(O)O [Bortezomib] (first compound 2 µM, partner dose 0.005 µM)	1.16	12.6	5.86	1.79	27.2	31.9	5.55	11	3.95	84.4
C=C(c1ccc(C(=O)O)cc1)c1cc2c(cc1C)C(C)(C)CCC2(C)C [Bexarotene] + O=C(CCCCCCC(=O)Nc1ccccc1)NO [vorinostat] (first compound 10 µM, partner dose 0.4 µM)	51.8	74.6	74.6	68.3	82.8	76.6	80.2	84.4	41.4	74.4
CCCS(=O)(=O)Nc1ccc(F)c(C(=O)c2c[nH]c3ncc(Cl)cc23)c1F + Nc1ncn([C@H]2C[C@H](O)[C@@H](CO)O2)c(=O)n1 [decitabine] (first compound 0.4 µM, partner dose 0.5 µM)	74.3	49.6	79.1	85.8	109	68.2	68.1	88	99.1	77.1
CN(c1ncccc1CNc1nc(Nc2ccc3c(c2)CC(=O)N3)ncc1C(F)(F)F)S(C)(=O)=O + Cc1cc([N+](=O)[O-])ccc1NS(=O)(=O)c1cc(Cl)ccc1Cl [FH535] (first compound 0.4 µM, partner dose 5 µM)	50.8	52.8	49.9	67.1	63.2	42.9	59.1	75.2	67.6	55.3
